The supplement of paper PMC4604168 (melanoma cell lines)
The list shows a part of the results. Most values come without repeats; read them as rough.

What was measured:
Test in all cases: cell count relative to DMSO control; melanoma cells; higher = more viable cells
Conditions in all cases: library dose: low library concentration; 72 h
[1] = test system: MZ2-MEL
[2] = test system: MeWo
[3] = test system: RPMI7951
[4] = test system: RVH-421
[5] = test system: SkMel28
[6] = test system: SkMel2
[7] = test system: SkMel30
[8] = test system: UACC62
[9] = test system: SkMel5
[10] = test system: UACC257
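Also: cell number obtained by counting DAPI-stained nuclei in high-throughput microscope images with image analysis software, screen run in 1,536-well plates.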

Row | SMILES | cell count [1] [%] | cell count [2] [%] | cell count [3] [%] | cell count [4] [%] | cell count [5] [%] | cell count [6] [%] | cell count [7] [%] | cell count [8] [%] | cell count [9] [%] | cell count [10] [%]
1 | CC(=O)c1c(C)c2cnc(Nc3ccc(N4CCNCC4)cn3)nc2n(C2CCCC2)c1=O [palbociclib] + Cn1c(Nc2ccc(C(F)(F)F)cc2)nc2cc(Oc3ccnc(-c4ncc(C(F)(F)F)[nH]4)c3)ccc21 [CHIR265] (first compound 0.04 µM, partner dose 0.08 µM) | 64.6 | 49.8 | 47.8 | 58.4 | 61.8 | 71.5 | 39 | 38.9 |  | 
2 | Nc1nc(F)nc2c1ncn2[C@@H]1O[C@H](CO)[C@@H](O)[C@@H]1O [fludarabine] + COCC[n+]1c2c(n(Cc3cnccn3)c1C)C(=O)c1ccccc1C2=O [YM155] (first compound 0.2 µM, partner dose 0.0004 µM) | 52 | 34.9 | 78.1 | 98.8 | 72.3 | 2.62 | 13.1 | 65.6 |  | 
3 | CC(=O)O[C@@]12CO[C@@H]1C[C@H](O)[C@@]1(C)C(=O)[C@H](O)C3=C(C)[C@@H](OC(=O)[C@H](O)[C@@H](NC(=O)OC(C)(C)C)c4ccccc4)C[C@@](O)([C@@H](OC(=O)c4ccccc4)[C@H]21)C3(C)C [Docetaxel] + CN(c1ncccc1CNc1nc(Nc2ccc3c(c2)CC(=O)N3)ncc1C(F)(F)F)S(C)(=O)=O [PF562271] (first compound 0.0001 µM, partner dose 0.08 µM) | 40.9 | 36.1 | 24.8 | 46.1 | 27.3 | 39.9 | 27.3 | 37.5 |  | 
4 | Nc1ncn([C@H]2C[C@H](O)[C@@H](CO)O2)c(=O)n1 [decitabine] + OCc1c[nH]c2ccccc12 [Indole-3-carbinol] (first compound 0.1 µM, partner dose 0.8 µM) | 86.3 | 107 | 83.1 | 59.9 | 82.4 | 97.7 | 111 | 88.2 |  | 
5 | CC(=O)O[C@@]12CO[C@@H]1C[C@H](O)[C@@]1(C)C(=O)[C@H](O)C3=C(C)[C@@H](OC(=O)[C@H](O)[C@@H](NC(=O)OC(C)(C)C)c4ccccc4)C[C@@](O)([C@@H](OC(=O)c4ccccc4)[C@H]21)C3(C)C [Docetaxel] + Cn1c(Nc2ccc(C(F)(F)F)cc2)nc2cc(Oc3ccnc(-c4ncc(C(F)(F)F)[nH]4)c3)ccc21 [CHIR265] (first compound 0.0001 µM, partner dose 0.08 µM) | 27.7 | 31.3 | 34.5 | 62.5 | 31.5 | 32.4 | 19.3 | 24.8 |  | 
6 | CC(=O)O[C@@]12CO[C@@H]1C[C@H](O)[C@@]1(C)C(=O)[C@H](O)C3=C(C)[C@@H](OC(=O)[C@H](O)[C@@H](NC(=O)OC(C)(C)C)c4ccccc4)C[C@@](O)([C@@H](OC(=O)c4ccccc4)[C@H]21)C3(C)C [Docetaxel] + Nc1cccc2c1CN(C1CCC(=O)NC1=O)C2=O [lenalidomide] (first compound 0.0001 µM, partner dose 1 µM) | 47.3 | 50.9 | 38.6 | 66.8 | 38.4 | 43.6 | 38.5 | 41.5 |  | 
7 | CC(=O)c1c(C)c2cnc(Nc3ccc(N4CCNCC4)cn3)nc2n(C2CCCC2)c1=O [palbociclib] + Cc1nc(Nc2ncc(C(=O)Nc3c(C)cccc3Cl)s2)cc(N2CCN(CCO)CC2)n1 [dasatanib] (first compound 0.04 µM, partner dose 0.004 µM) | 70.3 | 69.3 | 80.6 | 60.6 | 65.3 | 82.9 | 62.9 | 60.3 |  | 
8 | Nc1ncn([C@H]2C[C@H](O)[C@@H](CO)O2)c(=O)n1 [decitabine] + COCC[n+]1c2c(n(Cc3cnccn3)c1C)C(=O)c1ccccc1C2=O [YM155] (first compound 0.1 µM, partner dose 0.0004 µM) | 54 | 93.5 | 59.8 | 80.1 | 76 | 83.2 | 101 | 70.7 |  | 
9 | CO[C@H]1C[C@@H]2CC[C@@H](C)[C@@](O)(O2)C(=O)C(=O)N2CCCC[C@H]2C(=O)O[C@H]([C@H](C)C[C@@H]2CC[C@@H](OCCO)[C@H](OC)C2)CC(=O)[C@H](C)/C=C(\C)[C@@H](O)[C@@H](OC)C(=O)[C@H](C)C[C@H](C)/C=C/C=C/C=C/1C [everolimus] + Cn1cc(/C=C2\C(=O)Nc3cccnc32)c2ccccc21 [GW441756] (first compound 0.02 µM, partner dose 0.4 µM) | 78.9 | 64.8 | 78.2 | 84.2 | 52 |  | 65 | 57.3 | 75.9 | 54.3
10 | Nc1ncn([C@H]2C[C@H](O)[C@@H](CO)O2)c(=O)n1 [decitabine] + COc1ccc(Cl)c(Nc2nc3ccccc3nc2NS(=O)(=O)c2cccc(NC(=O)C(C)(C)N)c2)c1 [XL147] (first compound 0.1 µM, partner dose 0.8 µM) | 76.4 | 92.1 | 89.5 | 92.9 | 113 | 93.8 | 132 | 90.4 |  | 
11 | CC(=O)c1c(C)c2cnc(Nc3ccc(N4CCNCC4)cn3)nc2n(C2CCCC2)c1=O [palbociclib] + Nc1cccc2c1CN(C1CCC(=O)NC1=O)C2=O [lenalidomide] (first compound 0.04 µM, partner dose 1 µM) | 85.2 | 77.3 | 71.2 | 71.7 | 63.1 | 85.2 | 79.1 | 76.6 |  | 
12 | Nc1nc(F)nc2c1ncn2[C@@H]1O[C@H](CO)[C@@H](O)[C@@H]1O [fludarabine] + COc1ccc(Cl)c(Nc2nc3ccccc3nc2NS(=O)(=O)c2cccc(NC(=O)C(C)(C)N)c2)c1 [XL147] (first compound 0.2 µM, partner dose 0.8 µM) | 98.7 | 29 | 89.2 | 106 | 72.8 | 5.53 | 20.3 | 83.4 |  | 
13 | CC(=O)c1c(C)c2cnc(Nc3ccc(N4CCNCC4)cn3)nc2n(C2CCCC2)c1=O [palbociclib] + C#Cc1cccc(Nc2ncnc3cc(OCCOC)c(OCCOC)cc23)c1 [erlotinib] (first compound 0.04 µM, partner dose 0.8 µM) | 70.7 | 72.8 | 62.4 | 66.2 | 62.5 | 69.4 | 63.8 | 52.6 |  | 
14 | CC(=O)O[C@@]12CO[C@@H]1C[C@H](O)[C@@]1(C)C(=O)[C@H](O)C3=C(C)[C@@H](OC(=O)[C@H](O)[C@@H](NC(=O)OC(C)(C)C)c4ccccc4)C[C@@](O)([C@@H](OC(=O)c4ccccc4)[C@H]21)C3(C)C [Docetaxel] + NC1(c2ccc(-c3nc4ccn5c(=O)[nH]nc5c4cc3-c3ccccc3)cc2)CCC1 [MK2206] (first compound 0.0001 µM, partner dose 0.4 µM) | 41.3 | 35 | 44.5 | 56.3 | 22.7 | 38.2 | 36.5 | 36.8 |  | 
15 | Nc1ccn([C@@H]2O[C@H](CO)[C@@H](O)C2(F)F)c(=O)n1 [gemcitabine] + Nc1ncn([C@H]2C[C@H](O)[C@@H](CO)O2)c(=O)n1 [decitabine] (first compound 0.0004 µM, partner dose 0.1 µM) | 82.4 | 87.2 | 58.5 | 94.7 | 96.4 | 103 | 97.8 | 83.4 |  | 
16 | Nc1ccn([C@@H]2O[C@H](CO)[C@@H](O)C2(F)F)c(=O)n1 [gemcitabine] + Nc1nc(F)nc2c1ncn2[C@@H]1O[C@H](CO)[C@@H](O)[C@@H]1O [fludarabine] (first compound 0.0004 µM, partner dose 0.2 µM) | 89.9 | 36.2 | 77.5 | 72.8 | 78 | 11.2 | 19.1 | 78.5 |  | 
17 | CC(=O)O[C@@]12CO[C@@H]1C[C@H](O)[C@@]1(C)C(=O)[C@H](O)C3=C(C)[C@@H](OC(=O)[C@H](O)[C@@H](NC(=O)OC(C)(C)C)c4ccccc4)C[C@@](O)([C@@H](OC(=O)c4ccccc4)[C@H]21)C3(C)C [Docetaxel] + CC(=O)c1c(C)c2cnc(Nc3ccc(N4CCNCC4)cn3)nc2n(C2CCCC2)c1=O [palbociclib] (first compound 0.0001 µM, partner dose 0.04 µM) | 36.3 | 52.1 | 40.2 | 51.7 | 39.5 | 46.5 | 33.2 | 38.3 |  | 
18 | CC(=O)O[C@@]12CO[C@@H]1C[C@H](O)[C@@]1(C)C(=O)[C@H](O)C3=C(C)[C@@H](OC(=O)[C@H](O)[C@@H](NC(=O)OC(C)(C)C)c4ccccc4)C[C@@](O)([C@@H](OC(=O)c4ccccc4)[C@H]21)C3(C)C [Docetaxel] + COCC[n+]1c2c(n(Cc3cnccn3)c1C)C(=O)c1ccccc1C2=O [YM155] (first compound 0.0001 µM, partner dose 0.0004 µM) | 33.7 | 41.1 | 37.5 | 64.9 | 32.5 | 35.2 | 33 | 45.7 |  | 
